# Laboratory results published in PubChem BioAssay AID1345083 (National Center for Advancing Translational Sciences (NCATS), 2018).
# Hit rate of the full screen: of about 94,000 compounds, about 6,200 (6.6%) were called active. Inconclusive results, whose numbers are uncertain, are shown with a selection of clear calls. The call rests on the fitted dose curve; in most records, active means well fitted inhibition curve with a large enough effect; inconclusive means small, poorly fitted or top-dose-only effect; inactive means flat fitted curve, though single readings scatter. A potency beside an inconclusive call is a rough fit, not a confirmed value.
# Experiment: Cytotoxic Profiling in HEK 293 Cell Line of Diverse Libraries Using Quantitative High-Throughput Screening; further: nearly all actives have a fitted effect of over 60% in size
# Conditions: HEK 293 viability, ATP luminescence (CellTiter-Glo), 48-72 h; series mostly up to 115 µM
# Method in brief: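 HEK 293 cells at 250 cells/well were exposed to compounds by pintool transfer for 48 or 72 hr at 37 degree Celsius, 5% CO2. Viability was read as ATP-coupled luminescence with CellTiter-Glo after 10 min at room temperature.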
# Potency means the concentration at half of the fitted maximal effect; tags describe the fitted curve by direction and shape.
row,SMILES,Potency
1,Cc1ccncc1C(=O)N1CC[C@H](n2c(=O)n(C)c3cccnc32)C1,inactive
2,O=C(NC[C@H]1OC[C@@H](NCc2ccccc2F)[C@@H]1O)c1ccc(F)cc1,inactive
3,CC(=O)Nc1ccc(CN2CCN(Cc3ccccc3)C(CCO)C2)cc1 (stereo not given),inactive
4,Cc1noc(C)c1[S+](=O)([O-])N1CCC(C(=O)N2CCCC(c3nc4ncccc4[nH]3)C2)CC1 (stereo not given),inactive
5,CN1CCN(CCCNC(=O)c2c(OCC3CC3)cc(=O)n3c2CCOCC3)CC1,inactive
6,COCc1ccc2c(c1)c(OC(C)(C)C(N)=O)nn2Cc1cccc(OC)c1,"inconclusive: 89.1 µM [inhibitor, partial curve]"
7,COCCN1CCCN(C(=O)C2CCC2)c2ccccc21,"inconclusive: 31.6 µM [inhibitor, full curve]"
8,Cc1ccc(C)c(-c2cc3c(=O)n(CCNC(=O)Cc4ccsc4)ccn3n2)c1,"inconclusive: 79.4 µM [inhibitor, partial curve, poor fit]"
9,Cc1ccc(CNC[C@H]2O[C@H](Cc3cc(-c4ccc(F)cc4)on3)CC[C@@H]2O)cc1,active: 39.8 µM
10,Cc1cc2c(-c3cccc(OC(C)C)c3)nc(-c3c(C)noc3C)cc2[nH]1,active: 28.2 µM
11,O=C1NC(=NC2CCCCC2)C2(CCCN(CC3CC3)C2)N1c1cc(F)cc(F)c1 (stereo not given),active: 10 µM
12,COc1ccc(-c2ccc(C(=O)NC(C)C)c(Cl)c2)nn1,inactive
13,COc1ccccc1OCc1cc(C(=O)N2CCC(NC(C)=O)CC2)n[nH]1,inactive
14,NS(=O)(=O)c1ccsc1C(=O)N1CCCC2(CCNCC2)CC1,inactive
15,O=C(Cn1nc2c(cc1=O)CCCCC2)NCCn1ccc2c(Cl)cccc21,active: 79.4 µM
16,Cc1ccccc1[C@@H]1CN(Cc2cnn(CCC(=O)O)c2)C[C@H]1C(=O)O,inactive
17,CCCNc1cc(N2CCC(CCC(=O)Nc3cccc(C)c3)CC2)ncn1,inactive
18,COc1ccc(CN2CCc3nc(C(=O)NCc4cccc(F)c4)oc3CC2)cc1,"inconclusive: 100 µM [inhibitor, partial curve, poor fit]"
19,COc1ccc(-c2cc3c(=O)n(CCNC(=O)c4ccc(OC)c(OC)c4)ccn3n2)cc1,"inconclusive: 39.8 µM [inhibitor, partial curve]"
20,Cc1cnc(CC2CCN(S(=O)(=O)c3ccc(C#N)cc3)C2)n1Cc1ccccc1 (stereo not given),active: 44.7 µM
21,CNC(=O)c1cc(C2CC2)nc2onc(C3CCN(C(=O)OC)CC3)c12,inactive
22,O=C1Nc2ccccc2CNC12CCN(Cc1c[nH]c3ccccc13)CC2,"inconclusive: 89.1 µM [inhibitor, single point]"

row,SMILES,Potency
1,N[C@@H]1CC[C@@H]1NC(=O)c1ccccc1OC(F)(F)C(F)F,inactive
2,CCCc1noc(-c2cccn3c(CNC(=O)c4cccc5[nH]ccc45)nnc23)n1,"inconclusive: 50.1 µM [inhibitor, partial curve, poor fit]"
3,O=C(c1ccccc1)N1CCn2c(nn(-c3ccncc3)c2=O)C1,"inconclusive: 70.8 µM [inhibitor, partial curve, poor fit]"
4,COc1ccc(-c2nc(-c3c(C)noc3C)cc3cc(CO)oc23)cn1,"inconclusive: 44.7 µM [inhibitor, partial curve, poor fit]"
5,COc1ccccc1-c1nccc2c(=O)cc(-c3ccccn3)oc12,"inconclusive: 56.2 µM [inhibitor, full curve, poor fit]"
6,Fc1ccccc1Nc1nc(-c2ccccc2)no1,"inconclusive: 56.2 µM [inhibitor, partial curve, poor fit]"
7,CCCc1noc(-c2ccn3c(CNC(=O)c4ccc(C)c(C)c4)nnc3c2)n1,inactive
8,CS(=O)(=O)N1CCn2cc(C(=O)Nc3ccc(Cl)cc3Cl)nc2C1,"inconclusive: 89.1 µM [inhibitor, partial curve, poor fit]"
9,CCOc1ccc(C2Cn3nnc(-c4nc(-c5ccc(C(F)(F)F)cc5)no4)c3CO2)cc1 (stereo not given),"inconclusive: 28.2 µM [inhibitor, full curve, poor fit]"
10,COc1ccc(C(=O)N(C)Cc2ccc(F)cc2)cc1,"inconclusive: 126 µM [inhibitor, single point]"
11,COCCNC(=O)c1nn(C)c2nc(-c3ccccc3OC)ccc12,inactive
12,O=C(c1ccccc1Br)N1CCN(c2cc(-c3ccc(Cl)cc3)[nH]n2)CC1,"inconclusive: 14.1 µM [inhibitor, full curve, poor fit]"
13,COc1ccc(-c2cc(N3CCN(C(=O)Cc4ccccc4)CC3)n[nH]2)cc1,"inconclusive: 50.1 µM [inhibitor, partial curve, poor fit]"
14,COCCN1CCCC(c2[nH]ccc2C(=O)NCCc2nc3ccccc3[nH]2)C1 (stereo not given),"inconclusive: 39.8 µM [inhibitor, partial curve, poor fit]"
15,O=C(NC[C@H]1Cn2c(-c3ccccc3)cnc2CO1)c1ccccc1,"inconclusive: 112 µM [inhibitor, partial curve]"
16,COCCN1CCN(C[C@@H]2C=C(C)[C@H](Cc3nnc(-c4cccnc4)o3)C[C@H]2C(C)C)CC1,"inconclusive: 50.1 µM [inhibitor, partial curve, poor fit]"
17,O=C(Nc1cccc(C(F)(F)F)c1)c1nc2c(o1)CCN(Cc1nccs1)CC2,"inconclusive: 89.1 µM [inhibitor, partial curve, poor fit]"
18,O=C(C1Cn2cccc2C(=O)N1Cc1ccccc1)N1CCN(c2ncccn2)CC1 (stereo not given),inactive
19,O=C(NCC1CCCCC1)C1CCN(C(=O)N2CC3CC(C2)[C@H]2CCCC(=O)N2C3)CC1 (stereo not given in full),"inconclusive: 89.1 µM [inhibitor, single point]"
20,CC(C)CNC(=O)c1cc(-c2ccc(Cl)cc2Cl)c2nncn2n1,"inconclusive: 112 µM [inhibitor, partial curve, poor fit]"
21,O=C1NC(=NC2CCCCC2)C2(CCCN([S+](=O)([O-])c3cccc(C(F)(F)F)c3)C2)N1c1cccnc1 (stereo not given),"inconclusive: 89.1 µM [inhibitor, single point]"
22,COc1ccccc1N1CCN(C(=O)c2cc3cn(C4CCCC4)cc3s2)CC1,"inconclusive: 50.1 µM [inhibitor, partial curve, poor fit]"

row,SMILES,Potency
1,CC(C)(C)CC(=O)NC1CCN(c2cnn(CC3CC3)c(=O)c2)CC1,"inconclusive: 100 µM [inhibitor, single point]"
2,Cc1nc(CN2C[C@H](C(=O)NCc3cccc(F)c3)C[C@@H]2c2ccc(F)cc2)cs1,active: 89.1 µM
3,COc1cc(C(=O)N2CCC(Cc3nc(-c4ccc(F)cc4)no3)CC2)cc(OC)c1OC,"inconclusive: 17.8 µM [inhibitor, full curve, poor fit]"
4,CC(C)Oc1ccc(CNC(=O)C2CCCCC(=O)N2Cc2ccccc2)cc1 (stereo not given),"inconclusive: 50.1 µM [inhibitor, partial curve, poor fit]"
5,Cn1cc(-c2ccccc2Oc2ccccc2)c2nc(CN3CCNC(=O)C3)cn2c1=O,"inconclusive: 89.1 µM [inhibitor, partial curve]"
6,O=C(CSCC1CC1)N1CCC2(CCC(=O)N(CCCn3ccnc3)C2)CC1,inactive
7,COc1ccc(C(=O)N2CCc3nc(C(C)C)nc(-c4ccc(O)cc4)c3CC2)cc1,inactive
8,O=C1N(c2ccc(F)cc2)CCOC12CCN(Cc1ccccc1Cl)CC2,"inconclusive: 100 µM [inhibitor, partial curve, poor fit]"
9,Cc1ccccc1C(=O)NCc1cccnc1Oc1cccc(C(F)(F)F)c1,"inconclusive: 50.1 µM [inhibitor, partial curve, poor fit]"
10,Cn1c(CO[C@H]2CN(S(=O)(=O)c3ccc(Cl)cc3)C[C@H]2F)nc2ccccc21,"inconclusive: 89.1 µM [inhibitor, partial curve, poor fit]"
11,Cc1cc(C)cc(C(=O)N2CCC(n3cnnc3-c3ccccc3)CC2)c1,inactive
12,COCCN1C(=O)c2ccccc2C(C(=O)Nc2nc(C(=O)OC)c(C(C)C)s2)C12CCCC2 (stereo not given),"inconclusive: 89.1 µM [inhibitor, single point]"
13,CN1C[C@@H](NC(=O)C2CCCCC2)C[C@H]1c1nc(-c2ccc3c(c2)OCO3)no1,"inconclusive: 126 µM [inhibitor, single point]"
14,COc1ccc(-c2nc(C3CC(=O)N(C4CCCCC4)C3)no2)cc1 (stereo not given),"inconclusive: 70.8 µM [inhibitor, single point]"
15,Cc1cc(F)ccc1C(=O)N1CCn2nc(Cc3ccccc3)cc2C1,"inconclusive: 44.7 µM [inhibitor, partial curve, poor fit]"
16,CN(C)CCNC(=O)c1cc(-c2ccc(F)cc2)cc2ncn(C)c12,"inconclusive: 126 µM [inhibitor, single point]"
17,Oc1ccc(CCC2CCCCN2Cc2nc(Cc3cccc(F)c3)no2)cc1 (stereo not given),active: 22.4 µM
18,CC(C)Cc1cn(CC2CCCN(C(=O)NC3CCCCCC3)C2)nn1 (stereo not given),"inconclusive: 11.2 µM [inhibitor, full curve, poor fit]"
19,Cc1cccc(-c2noc([C@@H]3Cc4nc[nH]c4CN3C(=O)C3CCCCC3)n2)c1,"inconclusive: 126 µM [inhibitor, single point]"
20,O=C(Nc1ccc(Cl)cc1Cl)c1ccn2cncc2c1,"inconclusive: 126 µM [inhibitor, single point]"
21,COc1ccc(NC(=O)c2ccc(Cn3ccn4nc5c(c4c3=O)CCCC5)cc2)cc1,"inconclusive: 25.1 µM [inhibitor, full curve, poor fit]"
